The other results are listed elsewhere or left out. The list includes weakly bound sequences.
What follows are sequences tested against MaxL homodimer (UniProt P61244) (assay: universal protein-binding microarray (PBM)). Settings: PBS-based mixture, 10 nM His-tagged protein dimer, 2% milk, 200 ng/uL BSA, 50 ng/uL salmon testes DNA, 0.02% TX-100; detection with Alexa 488 anti-His …; high values mean tight binding; most listed sequences are background and not binding sites; double strand, one strand shown.
UniProt P61244, sequence (P61244 whole entry): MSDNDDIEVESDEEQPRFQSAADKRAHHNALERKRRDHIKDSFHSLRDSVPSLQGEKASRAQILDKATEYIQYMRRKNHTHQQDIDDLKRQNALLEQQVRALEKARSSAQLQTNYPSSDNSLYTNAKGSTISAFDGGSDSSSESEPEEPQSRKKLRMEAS
For AATGTGTG, the binding signal (normalized occupancy) was 0.0963. AAATTACC showed a binding signal (normalized occupancy) of 0.0766. For TGGCTCAA, the binding signal (normalized occupancy) was 0.0788. For GGCCGCAC, the binding signal (normalized occupancy) was 0.0778. For CTTTGATA, the binding signal (normalized occupancy) was 0.0754. TACATGTA showed a binding signal (normalized occupancy) of 0.0978. Sequence AGAGGTCG has a binding signal (normalized occupancy) of 0.0702. CAACGGGA showed a binding signal (normalized occupancy) of 0.0696. With CGATTGAG the binding signal (normalized occupancy) was 0.0741. AAGCATTC gave a binding signal (normalized occupancy) of 0.0773. CAGTGTGA showed a binding signal (normalized occupancy) of 0.0846. In the case of CTCATCGA, the binding signal (normalized occupancy) is reported as 0.0766. Work on TAATGAAA yielded a binding signal (normalized occupancy) of 0.0775. AAGAATGG showed a binding signal (normalized occupancy) of 0.0739. Sequence AGCTCGGA has a binding signal (normalized occupancy) of 0.0663. With ACGGACCC the binding signal (normalized occupancy) was 0.0719. In the case of TAGATGCA, the binding signal (normalized occupancy) is reported as 0.0785. AGGGTGTA was tested, and the binding signal (normalized occupancy) was 0.0815. TGTAGCAA was tested, and the binding signal (normalized occupancy) was 0.0791. With GACTGGAC the binding signal (normalized occupancy) was 0.0684. Work on AGCCGGTA yielded a binding signal (normalized occupancy) of 0.0711. In the case of AACCGTGC, the binding signal (normalized occupancy) is reported as 0.0756. AGGTTTTA showed a binding signal (normalized occupancy) of 0.0742. GCATGTAC was tested, and the binding signal (normalized occupancy) was 0.0973. Sequence ACGACCCT has a binding signal (normalized occupancy) of 0.0771. TCATACCA showed a binding signal (normalized occupancy) of 0.0779. In the case of ATTTCGCG, the binding signal (normalized occupancy) is reported as 0.0704. In the case of CCAGGCGA, the binding signal (normalized occupancy) is reported as 0.0673. For CATAATCA, the binding signal (normalized occupancy) was 0.0913. Sequence AGTTAACG has a binding signal (normalized occupancy) of 0.0743. GTTCGTAA showed a binding signal (normalized occupancy) of 0.0774. GCCCACGC gave a binding signal (normalized occupancy) of 0.0978. ACCTTCGG gave a binding signal (normalized occupancy) of 0.0671. CCGAGCCA gave a binding signal (normalized occupancy) of 0.075. ACTTGAGG showed a binding signal (normalized occupancy) of 0.0797. With TGTCTTAA the binding signal (normalized occupancy) was 0.0757. AGTATAAG was tested, and the binding signal (normalized occupancy) was 0.0804. Sequence AAGCCTGC has a binding signal (normalized occupancy) of 0.0691. Sequence AATTACTC has a binding signal (normalized occupancy) of 0.0715. CTGCTTGC showed a binding signal (normalized occupancy) of 0.0676. CCGTCACG gave a binding signal (normalized occupancy) of 0.0826. With ATCGTCTA the binding signal (normalized occupancy) was 0.0762. For AGTGCGGG, the binding signal (normalized occupancy) was 0.07. For CGCGGGAC, the binding signal (normalized occupancy) was 0.0733. With AACCTGTA the binding signal (normalized occupancy) was 0.0779. Work on AAGCCCTA yielded a binding signal (normalized occupancy) of 0.0709. CTATTTGC was tested, and the binding signal (normalized occupancy) was 0.0743. In the case of AACGCACA, the binding signal (normalized occupancy) is reported as 0.083. In the case of AGAAGACC, the binding signal (normalized occupancy) is reported as 0.0721. Sequence GCCTGGAA has a binding signal (normalized occupancy) of 0.0719. In the case of TATATGAA, the binding signal (normalized occupancy) is reported as 0.0809. GGGCGGCA showed a binding signal (normalized occupancy) of 0.0702. ACACGGGC showed a binding signal (normalized occupancy) of 0.0739. Work on GCCTGCGA yielded a binding signal (normalized occupancy) of 0.0709. With GGGCATTA the binding signal (normalized occupancy) was 0.0747. CGCCCAAA was tested, and the binding signal (normalized occupancy) was 0.0711. For ATCTCCTC, the binding signal (normalized occupancy) was 0.0776. ATGACTCG was tested, and the binding signal (normalized occupancy) was 0.0761. GCCGACCA was tested, and the binding signal (normalized occupancy) was 0.0757. Work on ATTCTCCA yielded a binding signal (normalized occupancy) of 0.076. With ATATTCGG the binding signal (normalized occupancy) was 0.0785. CTTGCAAG was tested, and the binding signal (normalized occupancy) was 0.0643. Sequence GTAGAGTA has a binding signal (normalized occupancy) of 0.073. GCCGGATA was tested, and the binding signal (normalized occupancy) was 0.0712. ACAACACT gave a binding signal (normalized occupancy) of 0.0746. AACTGTCC gave a binding signal (normalized occupancy) of 0.0711. Work on AGAGCCTA yielded a binding signal (normalized occupancy) of 0.0729. Work on ACATGGAC yielded a binding signal (normalized occupancy) of 0.0847. GGTGCCGA was tested, and the binding signal (normalized occupancy) was 0.0705. Sequence ATTCATTG has a binding signal (normalized occupancy) of 0.0787. In the case of CACTCCTG, the binding signal (normalized occupancy) is reported as 0.0721. Work on GCGAAACA yielded a binding signal (normalized occupancy) of 0.0802. For GTAAATAC, the binding signal (normalized occupancy) was 0.0788. In the case of GGCTATAC, the binding signal (normalized occupancy) is reported as 0.072. CGAGGCAG showed a binding signal (normalized occupancy) of 0.0725. For CCCTAGGA, the binding signal (normalized occupancy) was 0.066. GGTTTGTA gave a binding signal (normalized occupancy) of 0.0749. For AGAGTGTC, the binding signal (normalized occupancy) was 0.0703. With GATCTTCC the binding signal (normalized occupancy) was 0.0741. CCATGGTC gave a binding signal (normalized occupancy) of 0.0849. Sequence CAAAGCCA has a binding signal (normalized occupancy) of 0.076. Sequence GCTGAACA has a binding signal (normalized occupancy) of 0.0755. AGTGGGCA was tested, and the binding signal (normalized occupancy) was 0.0761. GATTTGAC showed a binding signal (normalized occupancy) of 0.0751. TATTACCA was tested, and the binding signal (normalized occupancy) was 0.0787. With CTGAGGCA the binding signal (normalized occupancy) was 0.0726.

— paper PMC4242493
